Laboratory results: PMC4336329 (PLoS ONE, 2015)
About 14,000 (4.5%) of roughly 310,000 compounds showed an effect of 50% or more. The effect is printed as a negative number. The list shows a part of the results.

target: human ether-à-go-go-related gene (hERG) potassium channel (human, UniProt Q12809); assay: primary screen, population patch clamp on CHO cells stably expressing hERG
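Note: peak tail current of the secondary pulse compared with the same well before compound.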

Sequence of human ether-à-go-go-related gene (hERG) potassium channel (Q12809 whole entry, looked up): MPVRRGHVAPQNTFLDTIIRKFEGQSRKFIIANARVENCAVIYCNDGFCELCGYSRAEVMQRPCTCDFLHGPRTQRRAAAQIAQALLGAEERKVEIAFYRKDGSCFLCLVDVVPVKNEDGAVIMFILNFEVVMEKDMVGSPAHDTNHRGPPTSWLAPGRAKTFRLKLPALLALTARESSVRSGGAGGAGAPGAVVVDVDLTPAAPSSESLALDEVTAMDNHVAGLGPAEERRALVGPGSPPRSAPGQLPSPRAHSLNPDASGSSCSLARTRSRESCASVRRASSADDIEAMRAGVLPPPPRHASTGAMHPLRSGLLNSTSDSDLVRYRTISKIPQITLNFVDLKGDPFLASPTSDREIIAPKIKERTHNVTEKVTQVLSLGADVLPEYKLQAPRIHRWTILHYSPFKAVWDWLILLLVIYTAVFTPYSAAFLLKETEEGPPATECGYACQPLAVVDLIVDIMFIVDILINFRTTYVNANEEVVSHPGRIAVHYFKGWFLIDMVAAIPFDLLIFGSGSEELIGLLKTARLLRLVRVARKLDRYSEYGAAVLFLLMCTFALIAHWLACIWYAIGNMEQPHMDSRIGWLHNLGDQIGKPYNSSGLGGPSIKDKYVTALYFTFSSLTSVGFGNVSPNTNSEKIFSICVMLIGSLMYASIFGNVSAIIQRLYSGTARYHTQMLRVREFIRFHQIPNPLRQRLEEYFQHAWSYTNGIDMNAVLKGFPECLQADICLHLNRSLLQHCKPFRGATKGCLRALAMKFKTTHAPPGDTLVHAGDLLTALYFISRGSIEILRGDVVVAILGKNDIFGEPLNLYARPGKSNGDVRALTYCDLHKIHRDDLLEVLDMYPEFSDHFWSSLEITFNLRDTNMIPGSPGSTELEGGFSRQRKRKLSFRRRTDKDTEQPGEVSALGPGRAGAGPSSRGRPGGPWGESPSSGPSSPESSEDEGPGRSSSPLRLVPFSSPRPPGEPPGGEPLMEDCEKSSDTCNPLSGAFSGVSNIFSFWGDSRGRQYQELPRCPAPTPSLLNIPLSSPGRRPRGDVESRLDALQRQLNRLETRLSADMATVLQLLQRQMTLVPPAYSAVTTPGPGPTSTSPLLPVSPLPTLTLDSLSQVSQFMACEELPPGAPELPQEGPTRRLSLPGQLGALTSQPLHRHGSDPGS

SMILES | hERG current change (%, negative = inhibition) at 10uM
CCCCNC(=O)CSc1nc2cc(OC)c(OC)cc2c(=O)n1Cc1ccc(OC)cc1 | -12.1%
O=C(Nc1ccnn1C1CCN(Cc2cccc(F)c2F)CC1)C1CCCC1 | -23.2%
CN(Cc1ccccc1)S(=O)(=O)c1ccc(C(=O)Nc2nnc(C3CC3)o2)cc1 | -41.6%
COc1ccc(N(CC(=O)N2CCN(Cc3ccccc3)CC2)S(C)(=O)=O)cc1OC | 1.4%
O=C(C1=C[C@H](c2ccc(C(F)(F)F)cc2)C[C@H](OCc2ccc(CO)cc2)O1)N1CCN(Cc2ccccc2)CC1 | -15.2%
CN(CC(=O)Nc1ccccc1F)S(=O)(=O)c1ccc2c(c1)n(C)c(=O)c(=O)n2C | -12.5%
CCN1CC2(COC(=O)c3ccccc3N)CCC(OC)C34C5CC6C(OC)CC(O)(C5C6OC)C(O)(C(OC)C23)C14 (stereo not drawn) | -11.5%
CNC(=O)[C@@]1(C)C=C[C@@H](Cc2ccccc2)N1C(=O)OC | 17.7%
COc1ccc(CCNC(=O)[C@@H](NC(=O)N2CCn3c2nc2ccccc23)C(C)C)cc1OC | -14.3%
CCOC(=O)N1CCC(NCCNC(=O)c2ccccc2)CC1.Cl | 6.13%
CCC(C)NCCOCCOc1ccccc1-c1ccccc1.O=C(O)C(=O)O (stereo not drawn) | -37.7%
Cc1cc(C(=O)NCC(=O)Nc2c(C)cccc2C)c(C)o1 | 12.5%
COc1ccc(-n2cc(CNCCc3cnc[nH]3)c(-c3cccc(F)c3)n2)cc1 | -28.9%
Cn1c(COc2nnc(-c3ccc(Cl)cc3)c3ccccc23)nc2ccccc21 | 5.78%
CCOC(=O)C(Cc1ccccc1)C(=O)Nc1cccc2ccccc12 (stereo not drawn) | -11.8%
Cc1cccc(NC(=O)CSc2nnc(-c3cc(C)n(-c4ccccc4)c3C)o2)c1C | 6.46%
COc1ccc(-c2csc3ncn(-c4ccccc4)c(=O)c23)cc1OC | 0.363%
O=C(CN1CCOCC1)Nc1cccc(C(=O)Nc2cccc(C(F)(F)F)c2)c1 | -40.1%
CCC(c1nnc(SCC(=O)N2CCOCC2)n1C1CCCCC1)N(C)C (stereo not drawn) | -7.08%
COc1cc(OC)nc(S(C)(=O)=O)n1 | 2.01%
COc1ccccc1NC(=O)Oc1cccc(OC(=O)c2ccccc2)c1 | 11.7%
CC(C)CCOP(N)(=O)Oc1ccccc1Cl (stereo not drawn) | 18.1%
CCC[N+]1(CC#CCC(c2ccccc2)c2ccccc2)CCCCC1.[Br-] | -66.7%

SMILES | hERG current change (%, negative = inhibition) at 10uM
O=C(Nc1ccc(S(=O)(=O)Nc2cnc3ccccc3n2)cc1)c1ccc([N+](=O)[O-])cc1Cl | -1.11%
COc1ccccc1C(=O)NC(=O)COC(=O)c1ccc([N+](=O)[O-])cc1Cl | 18.1%
Cc1nnc(Nc2ccccc2F)s1 | -0.816%
C/C=C(/C)C(=O)Nc1cccc(C2=NOC3(C2)C[C@@H](C(N)=O)N(C(=O)c2ccc(OC)cc2)C3)c1 (stereo partly drawn) | 8.51%
O=C(c1ccc(F)cc1F)N1CCN(c2ncccn2)CC1 | 10.6%
COc1ccc(Nc2ccc([N+](=O)[O-])cn2)cn1 | 6.26%
CCOC(=O)c1ccc(NC(=S)N2CCN(CCO)CC2)cc1 | 19%
COc1ccc(OC)c(S(=O)(=O)N2CCC(C(=O)Nc3ccccc3)CC2)c1 | -14.1%
O=C(C1CCC(N2C(=O)C3CC=CCC3C2=O)CC1)N1CCCCC1 (stereo not drawn) | 10.7%
Cc1ccc(C2(CCN)CCOC(C(C)C)C2)cc1 (stereo not drawn) | 17%
O=C(/C=C/c1ccccc1[N+](=O)[O-])N1CCN(C(=O)c2ccco2)CC1 | -45.6%
C=CCc1ccc(OCCOCCOc2cccc3ccc(C)nc23)c(OC)c1.O=C(O)C(=O)O | -61.6%
FC(F)(F)c1cnc(NNC(=S)Nc2cccnc2)c(Cl)c1 | 26.3%
O=C(NCCN1CCOCC1)c1ccccc1Cl | 18.3%
CC(=O)N1N=C(c2cccs2)CC1c1cccs1 (stereo not drawn) | 5.99%
CC(=O)OC1=C(C#N)Cn2ccc3cccc1c32 | 2.56%
CCN1C(=O)CC(N2CCC(C(=O)N3CCCCCC3)CC2)C1=O (stereo not drawn) | 5.76%
O=C(CN1CCC(NC(=O)c2cccc(F)c2)CC1)Nc1ccc(Br)cc1 | -73%
O=S(=O)(NCCc1ccncc1)c1ccc(Br)cc1 | -21.5%
C/C(=N\NC(N)=O)c1cc(Cl)cc(Cl)c1O | 15.4%
O=C(/C=C/Nc1ccc(S(=O)(=O)Nc2ncccn2)cc1)c1ccc(Cl)c(Cl)c1 | -3.62%
C=CCC(CC=C)(NC(=O)c1ccccc1C)c1ccccc1 | 13.5%
CC1CCCCC1NC1=NCCS1 (stereo not drawn) | 27.7%

SMILES | hERG current change (%, negative = inhibition) at 10uM
Cc1cc(C(=O)NCCN2CCCCC2C)n(-c2ccccc2)n1 (stereo not drawn) | -7.89%
O=C(NNC(=O)C1CCCN(c2ncccn2)C1)c1ccc(F)cc1 (stereo not drawn) | 5.63%
NNc1nc2ccccc2nc1C(F)(F)F | 15.9%
CCOC(=O)Cn1ncc2c(=O)oc3ccccc3c21 | -0.743%
CC1CN(CC(O)COc2ccc(C#N)cc2)CCN1CC(O)COc1ccc(C#N)cc1 (stereo not drawn) | -77.2%
O=C(Cc1ccccc1)NC1CCN(S(=O)(=O)c2cccc(F)c2)CC1 | 1.42%
Cc1ccc(C(C)C)c(OCC(O)CN2CCN(CCO)CC2)c1.Cl (stereo not drawn) | -13.9%
O=C(NCC1CCCO1)c1cccc(NC(=O)c2ccco2)c1 (stereo not drawn) | 0.813%
Cc1ccc(/C=N/NC(=O)CNC(=O)c2cccc([N+](=O)[O-])c2C)o1 | 17.4%
CC(=O)c1ccc(NC(=O)c2cc(-c3cccs3)on2)cc1 | 23.2%
CC(=O)COc1cc(C)cc2oc(=O)c(C)c(C)c12 | -5.86%
CC(NC(=O)N1CCOCC1)c1ccccc1 (stereo not drawn) | 15.4%
Nc1nnc(C(c2ccccc2)c2ccccc2)s1 | 1.08%
Cc1cccc(OCC(=O)NC2CCCC2)c1 | 12.8%
O=C(O)C1CCCN1S(=O)(=O)c1ccc(Cl)cc1 (stereo not drawn) | 1.76%
Cc1ccc(C(=O)COC(=O)COc2ccccc2C)cc1 | -3.79%
CNC(=S)NC1CC2CCCC(C1)N2Cc1ccc(C)cc1 (stereo not drawn) | -38.9%
CC(=O)N1CC=CC1(C)C(=O)O (stereo not drawn) | 15.5%
CCOC(=O)c1c(NC(N)=O)nc2n1CCC2 | 0.875%
Cc1c(NC(=O)/C(C#N)=C/c2ccc(-c3ccc(Cl)cc3)o2)c(=O)n(-c2ccccc2)n1C | -41.5%
N#CC1=C(N)Oc2c(oc(CO)cc2=O)C1c1ccsc1 (stereo not drawn) | 8.61%
O=C(Nc1ccc(N2CCCC2)c(S(=O)(=O)Nc2cccc(C(F)(F)F)c2)c1)c1cccs1 | 12.8%
O=C(CNc1cccc(Cl)c1)c1ccc(Cl)cc1 | -9.86%

SMILES | hERG current change (%, negative = inhibition) at 10uM
C=CCOc1ccc(CNc2nccs2)cc1 | -2.26%
COc1cccc(NC(=O)COC(=O)C2C3CC4OC(=O)C2C4C3)c1 (stereo not drawn) | 12.7%
Cc1cccc(N(C(=O)c2csnn2)C(C(=O)NC(C)(C)C)c2cccs2)c1 (stereo not drawn) | -11.2%
CC(Oc1ccccc1)C(=O)Nc1ccc(S(=O)(=O)N2CCOCC2)cc1 (stereo not drawn) | -3.67%
O=C(O)CCCNC(=O)c1ccccn1 | 14.2%
CCCS(=O)(=O)N1CCCC(C(=O)Oc2ccccc2Cl)C1 (stereo not drawn) | 13.2%
CCc1nnc(NC(=O)C(CC)CC)s1 | -9.5%
CCOC(=O)c1ccc(-n2c(CN3CCC(O)CC3)nc3ccc([N+](=O)[O-])cc3c2=O)cc1 | -2.33%
CCOC(=O)COc1ccc(Br)cc1/C=C\c1[nH]c(=O)[nH]c(=O)c1[N+](=O)[O-] | 5.23%
CC1CC1c1ccc(/C=C(\C#N)C(=O)Nc2ccc(Cl)cc2Cl)o1 (stereo not drawn) | -10.6%
Cc1ccc(NC(=O)Nc2cnccn2)cc1Cl | 24.4%
Cc1ccc(C2N=C(N)Nc3nc4ccccc4n32)cc1 (stereo not drawn) | 21.3%
O=C1CC(N2CCN(c3ccc(S(=O)(=O)N4CCCC4)cc3)CC2)C(=O)N1c1ccc(F)cc1 (stereo not drawn) | -19.3%
CCCCN(C(=O)c1c(C)[nH]c(C(=O)OCC)c1C)c1ccccc1 | -2.68%
Cc1ccc(C(=O)OCC(=O)Nc2c(C)n(C)n(-c3ccccc3)c2=O)cc1[N+](=O)[O-] | -4.14%
CCOc1ccccc1N(CC(=O)Nc1ccc2c(c1)OCCO2)S(C)(=O)=O | -3.52%
CCOC(=O)c1nc(Nc2ccccc2)c2ccccc2n1 | -15.6%
CCOC(=O)c1cnc(SC)nc1Nc1cccc2ccccc12 | -0.466%
COc1ccc(CN(C)CC2CCCN(CCc3ccc(F)cc3)C2)cc1OC (stereo not drawn) | -64.8%
CSc1nn2c(C)c(C)c(C)nc2c1C#N | -20.8%
O=C(Nc1ccc(S(=O)(=O)Nc2nccs2)cc1)c1cc(-c2ccncc2)nc2ccccc12 | 10.1%
